The supplement of paper PMC5499739
Over roughly 16,000 sequences, “Z-score” has its median near -0.37; the highest 2% begin near 3.1. Some of the results follow.

test system: RBM10 RRM1-ZnF-RRM2 (GST-tagged construct); assay: RNAcompete 7-mer binding Z-score; higher = stronger binding preference
Experimental: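 RNAcompete: 20 pmol GST-tagged RBM10 RNA-binding constructs were incubated with a designed RNA pool of about 241,000 sequences up to 41 nt (1.5 nmol) on glutathione beads for 30 min at 4 °C and washed. Bound RNAs were identified by microarray hybridisation. Each RNA 7-mer is scored by a one-sided Z-score of its enrichment, computed over probes that contain the 7-mer within longer pool sequences.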

Sequence | RNAcompete 7-mer binding Z-score
CCUUAUU | -0.879
UGCCGUG | -0.00512
UUCCCCC | -0.511
ACGCCGG | -0.395
CUGAUCG | -0.734
AGACAGG | 1.72
UAGUGAC | 0.21
UGCUGCU | -0.566
GAUAUGC | -0.078
AAUUCCC | -0.85
UUAAUUA | -0.61
UAUCACA | -0.373
UCGUUGA | -0.519
CGCGCGC | -0.562
CGAACGA | -0.0561
CUCGGGA | 0.228
GUGACGA | 0.68
GUAAAGA | 0.545
UAGUGGU | 1.27
UACGCCA | -0.602
GCGACCA | -0.0379
GUUCCAU | -0.712
CACUACA | -0.504

Sequence | RNAcompete 7-mer binding Z-score
AUGGAGA | 2.59
UCGAGAC | -0.417
UCGAUAG | 0.0058
GGGGAAA | 3.02
ACUCUUA | -0.981
GACCGUA | -0.635
UCCAGAG | -0.213
AUGGAAA | 2.62
UCAGUCU | -0.646
AACGCCC | -0.777
CCUUAGC | -0.817
GCGGUUG | 1.02
GUCGGUU | 0.199
CAUUCAC | -0.723
CUUGAUG | -0.664
GUAAGAG | 1.18
UGAGGUA | 1.87
UUGAGUC | -0.435
UUUGUCU | -0.653
CACCCUC | -0.763
UGCGGCU | -0.169
UGUAGUA | 0.155
ACAUAUA | -0.744

Sequence | RNAcompete 7-mer binding Z-score
AUUACUC | -0.65
CGCUGUG | -0.322
CAGUGGA | 1.75
UCGACGA | -0.275
ACUUGAC | -0.836
GAUACGG | 1.97
CUCCCAG | -0.683
GGGCCGA | 0.84
CGUUUAU | -0.712
GUAAGUC | -0.0743
AACUUAA | -0.628
UACCCGA | -0.65
GUCUGAC | -0.562
UCUCGAC | -0.799
CGGAAAC | 0.111
GAGUGCU | -0.125
GAAACCU | -0.661
AAGGGAU | 3.44
CAACUUC | -0.879
GCAGAAU | 0.468
AAAUCCA | -0.46
AUCUGAC | -0.734
GUCCACA | -0.406

Sequence | RNAcompete 7-mer binding Z-score
CAGGUUC | -0.0707
AUUAUUU | -0.639
CUUAAAG | -0.723
UUUGUAC | -0.686
UCGCUGG | 0.075
CGGUGUA | 0.873
CGCACCG | -0.417
ACAGCCA | -0.555
ACUGGAU | 0.527
AUACCAG | 0.075
CUCCCCG | -0.737
CUCGUCG | -0.5
AAGCGGC | 0.217
UGUGGUA | 0.833
GCAGUAC | 0.0604
UCGAUGA | -0.278
CACCUCU | -0.854
GUGUAUA | 0.614
AAGGUUU | 2.37
AUACCAC | -0.46
UGUGUAC | -0.315
CUCUCUU | -0.857
AACGAUU | -0.355

Sequence | RNAcompete 7-mer binding Z-score
AGGACUA | -0.078
UGGCGCC | -0.264
CACCAUA | -0.632
GCUAGAG | 0.37
ACCGGGU | 1.28
UAAAAAG | 0.137
UUAGGCU | 0.0532
UGUAUAG | 0.297
CAACUCG | -0.766
GUCCGUC | -0.362
AGCGCUC | -0.522
UCUCAGC | -0.744
AUCCCAG | -0.435
AUACUUG | -0.61
GAAUCAC | -0.129
UUAAAUG | -0.486
GUAGCUA | -0.216
CUGACUG | -0.581
CACGAAG | 0.0495
GCCGACC | -0.679
UACUUUC | -0.894
CAUGUGG | 0.84
UCGACGU | -0.5

Sequence | RNAcompete 7-mer binding Z-score
UGGGUGG | 4
AAGGUCU | -0.103
CGAUGCA | -0.0998
AUGCCCU | -0.839
UAACGUA | -0.107
CUCACUU | -0.97
AGCACGC | -0.358
UUUGGAC | -0.246
UUAUUAC | -0.697
UUGACGU | -0.479
GCCCGAC | -0.843
CAGCUGC | -0.548
CCAUCCC | -0.759
AGCCGCG | -0.388
CCAACCU | -0.85
UUUGGGU | 2.13
GUCAAGG | 1.38
GGUCCAG | 0.199
CAGACCG | -0.497
UUUCACG | -0.715
GUACUCU | -0.672
GUUUGAC | -0.373
AACUUUU | -0.752

Sequence | RNAcompete 7-mer binding Z-score
ACAGCUG | -0.0707
GUCUCCA | -0.65
UGCAAGC | -0.573
CUUUGCG | -0.894
CAUGAGG | 1.35
UAACUCG | -0.533
CUGCUGA | -0.639
CAACGGA | 0.913
ACCGACU | -0.697
ACACACG | -0.0962
UGCCCCU | -0.471
GACAUGA | 0.301
UACCACC | -0.526
CUCUUAA | -0.759
CCCGUAU | -0.752
CGAGCCU | -0.723
GACCCGC | -0.89
CCGUAUU | -0.737
GAUUAUA | -0.0998
CCGUGUU | -0.606
CAAGUGC | -0.289
CUCGGAC | -0.453
GGCUUGU | -0.318

Sequence | RNAcompete 7-mer binding Z-score
GACAAAG | 1.01
GCUCCUG | -0.704
AAGUGCA | 0.235
UAACCCG | -0.668
UGGAACU | 0.279
CACUCUU | -0.876
UCCAGGG | 0.851
GUGAGCA | 0.676
UAAGGGA | 3.09
CUAGCAU | -0.624
CAUUAGA | -0.526
UUACACU | -0.526
UGAAGAG | 0.869
UGGGAAA | 2.49
GCCACGG | 0.479
CGAGCUG | -0.184
ACACGUG | -0.107
CUUAAUA | -0.763
UGCCUGG | -0.457
ACGCUCC | -0.697
UCGUUUC | -0.675
UUUGAGC | -0.566
